# Experimental data: patent publication US20250222125A1, “Anti-FGFR2b Antibodies, Conjugates and Methods of Use” (BeiGene, Ltd., priority 2024, published 2025)
# B1: BGA2311: reference antibody; binds at the N-terminus, not considered a ligand blocker; HC SEQ ID NO: 39, LC SEQ ID NO: 40 (antibody)
# heavy: EVQLLESGGGLVQPGGSLRLSCAASGFTFSSYAMSWVRQAPGKGLEWVSAISGSGTSTYYADSVKGRFTISRDNSKNTLYLQMNSLRAEDTAVYYCARVRYNWNHGDWFDPWGQGTLVTVSS[human IgG1 constant region not printed]
# light: QSVLTQPPSASGTPGQRVTISCSGSSSNIGNNYVSWYQQLPGTAPKLLIYENYNRPAGVPDRFSGSKSGTSASLAISGLRSEDEADYYCSSWDDSLNYWVFGGGTKLTVLGQPKAAPSVTLFPPSSEELQANKATLVCLISDFYPGAVTVAWKADSSPVKAGVETTTPSKQSNNKYAASSYLSLTPEQWKSHRSYSCQVTHEGSTVEKTVAPTECS
# modifications: Synthetic: HC AA; Synthetic: LC AA
# Tested on: phosphorylated FGFR in SNU-16 cells
# Experiment: Inhibition of FGFR2 signaling in SNU-16 cells (Western blot of pFGFR)
# Format: cell-based
# Conditions: antibody 10 μg/ml, 2 hours
# Description: Inhibition of the FGFR2 signaling pathway by the humanized antibodies was investigated. SNU-16 cells were grown in RPMI-1640 medium with 10% FBS, collected and washed twice with free medium and then seeded in 12-well plates at 1.5E6 cells/well in serum-free RPMI-1640. The plates were incubated at 37° C., 5% CO2, and 95% humidity in an incubator overnight. Anti-FGFR2b antibodies at a concentration of 10 μg/ml were added to the assay plates. Recombinant human FGF7 or FGF10 protein (10 ng/ml) in the presence of heparin (5 μg/ml) was added to the assay plates. The plates were incubated in a 37° C., 5% CO2, 95% humidity incubator for 2 hours. Following 2 hours incubation, cells were collected and washed twice with cold PBS. NP40 lysis buffer containing 1×PMSF and 1× Protease plus phosphatase inhibitors were added to the cell pellets. The mixture was pipetted up and down to suspend the pellet. The mixture was inverted gently and each placed for 10 minutes on ice, for a total of 30 minutes. The mixture was centrifuged at 12000× rpm for 10 minutes to pellet the cell debris. The supernatant was transferred to a new tube to quantify total protein concentration by BCA Kit. The protein samples were then split and stored at −80° C. for further Western blotting to detect the expression of pFGFR and total FGFR2. […]
molecule,measurement,setting,value
B1,FGF7-induced FGFR phosphorylation,FGF7 10 ng/ml,did not result in down-regulation
same,FGF10-induced FGFR phosphorylation,FGF10 10 ng/ml,did not result in down-regulation
